# Screen size: about 100,000 compounds; about 250 (0.25%) were called active. Inconclusive results, whose numbers are uncertain, are shown with a selection of clear calls. The call rests on the fitted dose curve; in most records, active means well fitted inhibition curve with a large enough effect; inconclusive means small, poorly fitted or top-dose-only effect; inactive means flat fitted curve, though single readings scatter. No potency is given beside an inconclusive call; the fits are too rough.
# Target: Alanine aminotransferase 2 (Homo sapiens) (UniProt Q8TD30)
# Assay: Primary qHTS assay for inhibitors of Glutamate pyruvate transaminase 2 (GPT2); further: nearly all actives have a fitted effect of over 60% in size
# Conditions: Recombinant GPT2, coupled pyruvate oxidase/HRP Amplex Red fluorescence; activity change, negative = inhibition: at 57.7 µM (top of the series) unless noted; series mostly up to 57.7 µM
# Method in brief: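 Fluorescence of coupled pyruvate oxidase/HRP/Amplex Red system (50uM Amplex, 30 min, dark) reports pyruvate formed by GPT2. Enzyme reaction: 10ng/uL GPT2, 2mM L-alanine, 250uM a-KG, 30 min room temperature, pH 7.5; 50uM AOA control.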
# On the % scale 0 is the no-effect control and ±100 the full control effect; potency means the concentration at half of the fitted maximal effect; tags describe the fitted curve by direction and shape.
# UniProt Q8TD30, sequence (Q8TD30 whole entry, looked up): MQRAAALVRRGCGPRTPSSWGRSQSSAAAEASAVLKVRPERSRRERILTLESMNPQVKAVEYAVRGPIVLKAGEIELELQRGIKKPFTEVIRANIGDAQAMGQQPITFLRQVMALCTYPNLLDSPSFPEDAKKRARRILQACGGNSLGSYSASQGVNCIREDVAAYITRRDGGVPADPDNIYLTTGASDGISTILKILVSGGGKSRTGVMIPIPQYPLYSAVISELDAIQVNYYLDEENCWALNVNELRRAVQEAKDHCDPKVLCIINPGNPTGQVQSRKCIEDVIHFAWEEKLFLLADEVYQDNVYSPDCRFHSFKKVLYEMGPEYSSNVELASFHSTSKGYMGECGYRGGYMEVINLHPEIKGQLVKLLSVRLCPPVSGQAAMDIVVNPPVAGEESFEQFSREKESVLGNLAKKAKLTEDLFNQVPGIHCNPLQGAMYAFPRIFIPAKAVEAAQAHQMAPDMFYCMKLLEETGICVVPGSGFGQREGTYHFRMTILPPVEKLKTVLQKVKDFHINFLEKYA
SMILES,Potency,"activity change, negative = inhibition",outcome
CC(C)(C)C(=O)N1CCCC(c2nn(-c3cccc(Cl)c3)c(=O)[nH]2)C1 (stereo unspecified),"inconclusive [inhibitor, single point]",,
CC(C)(C)c1ccnc(N[C@H]2CO[C@H]3[C@@H]2OC[C@H]3OC(=O)Nc2cccc(C(F)(F)F)c2)n1,"inconclusive [inhibitor, single point]",,
COc1cc(Cl)ccc1C(=O)NC1CCN(c2cc(C(F)(F)F)nc(C)n2)CC1,,inactive: -3.87%,
CC(=O)N1CCC(Nc2cc(-c3ccc(Cl)cc3)nc3c(C)noc23)CC1,"inconclusive [inhibitor, full curve, poor fit]",,
CCOC(=O)C1(Cc2cccc(C(F)(F)F)c2)CCN(Cc2cc(C(C)C)n[nH]2)CC1,"inconclusive [inhibitor, partial curve, poor fit]",,
Cc1ccc(C(=O)N2CCC3(CC2)NC(=O)N(c2ccccc2)N3)cc1C,"inconclusive [inhibitor, partial curve, poor fit]",,
CCCc1nc(C(=O)NC(C)c2nncn2CCOC)cs1 (stereo unspecified),"inconclusive [inhibitor, single point]",,
COc1ccc(F)cc1-c1cccc(C(=O)O)c1,"inconclusive [inhibitor, single point]",,
Cc1cccc(C(C)(C)C)c1NC(=O)N1CCOC(C(F)(F)F)C1 (stereo unspecified),"inconclusive [inhibitor, single point]",,
Cc1cc(C(F)(F)F)n(-c2nc(C(=O)N3CCOCC(O)C3)cs2)n1 (stereo unspecified),"inconclusive [inhibitor, single point]",,
O=C(COc1ccccc1)N1CCN(c2cc(C(F)(F)F)ncn2)CC1,"inconclusive [inhibitor, single point]",,
COCCN1C(=O)CS(=O)C12CCN(C(=O)Nc1ccccc1F)CC2 (stereo unspecified),"inconclusive [inhibitor, single point]",,
CC(C)CCN1CCNC(=O)C1CC(=O)NCc1ccc(O)cc1O (stereo unspecified),"inconclusive [inhibitor, single point]",,
O=C(Nc1ccccc1)N1CCC(OCc2noc(C3CCCO3)n2)CC1 (stereo unspecified),"inconclusive [inhibitor, single point]",,
C[N+](C)(C)CCO,,,inactive
O=C(NCCc1csc(-c2cccnc2)n1)C1NCCc2[nH]cnc21 (stereo unspecified),,inactive: -28.9%,
COc1cccc(C(=O)N2CCC3(CC2)Cc2ccccc2NC3=O)c1,,inactive: 2.99%,
CCn1cc(S(=O)(=O)N[C@@H]2CCOC[C@H]2O)c(C)n1,"inconclusive [inhibitor, single point]",,
O=C(NCc1ccccc1)N1CC(c2nc(CCOCC3CCCC3)no2)C1,"inconclusive [inhibitor, single point]",,
O=C(NC1CCN(c2cc(-c3cccs3)[nH]n2)C1)c1ccc(Br)cc1 (stereo unspecified),"inconclusive [inhibitor, single point]",,
N#Cc1ccc(S(=O)(=O)N2CCC(C(=O)N3CCCCCCNC(=O)CC3)CC2)cc1,,inactive: -13%,

SMILES,Potency,"activity change, negative = inhibition",outcome
COc1ccc(F)cc1S(=O)(=O)N[C@@H]1CN(C)C[C@H]1CN(C)C,"inconclusive [inhibitor, single point]",,
CC1(c2ccccc2)N(Cc2ccccc2)C(=O)OC12CCN(Cc1ccccn1)CC2 (stereo unspecified),"inconclusive [inhibitor, single point]",,
O=C(NC1CCN(c2cc(-c3ccc(Cl)cc3)[nH]n2)C1)c1ccncc1 (stereo unspecified),"inconclusive [inhibitor, partial curve]",,
O=C1CNc2ccc(C(=O)N3C[C@H](CO)C[C@H](CN4CCCC4)C3)cc2N1,"inconclusive [inhibitor, full curve, poor fit]",,
O=C(Cc1ccc(F)cc1)N1CCn2c(nn(-c3ccc(F)cc3)c2=O)C1,"inconclusive [inhibitor, single point]",,
COc1ncccc1-c1ccnc(-c2nnc(C)n2-c2ccccc2)c1,"inconclusive [inhibitor, single point]",,
COc1ccc(-c2cc(C[C@@H]3CC[C@H](O)[C@@H](CN(C)C)O3)no2)cc1,,inactive: 2.11% [at 88.5 µM],
CC1(CO)CC(O)[C@]2(C(=O)O)CCC34CC3(C=CC3[C@]5(C)C(CC[C@]34C)C(C)(CO)[C@@H](O)[C@H](O)[C@@H]5O)C2C1 (stereo partly specified),"inconclusive [inhibitor, single point]",,
COc1cc2nccc(Oc3ccc(NC(=O)Nc4cc(C)on4)c(Cl)c3)c2cc1OC,"inconclusive [inhibitor, partial curve, poor fit]",,
COc1ccc(C(=O)NC2CCN(c3cc(-c4ccc(Cl)cc4)[nH]n3)C2)c(OC)c1 (stereo unspecified),"inconclusive [inhibitor, single point]",,
Nc1nc2c(s1)C(c1ccccc1)CC(=O)N2 (stereo unspecified),"inconclusive [inhibitor, full curve, poor fit]",,
CCCc1nnc(C[C@@H]2C[C@@H](C(C)C)[C@H](CNCc3cccnc3)C=C2C)o1,,inactive: -5.94% [at 88.5 µM],
COCCCNC(=O)c1ccc2nnc(Cc3ccco3)n2c1,,inactive: 3.97% [at 88.5 µM],
COc1cccc(CN2CCCCCCNC(=O)[C@@H]3C[C@@H](C(=O)NCCc4cnc[nH]4)C[C@@H]32)c1,,,inactive
O=C(C1CCCN(Cc2cccc(-c3ccc(F)cc3F)c2)C1)N1CCCC1 (stereo unspecified),"inconclusive [inhibitor, partial curve, poor fit]",,
CCCCCCN1CCCC12Cc1ccccc1CNC2=O (stereo unspecified),,,inactive [at 88.5 µM]
COc1ccc(OCC(=O)N2CCC(Cc3nc(-c4ccc(OC)cc4)no3)CC2)cc1,"inconclusive [inhibitor, single point]",,
COc1cccc(C(=O)N2CCCC(c3nn(-c4ccccn4)c(=O)[nH]3)C2)c1 (stereo unspecified),,,inactive
N#Cc1ccc(O[C@@H]2CCOC[C@H]2NC(=O)CN2CCOC2=O)cc1,"inconclusive [inhibitor, single point]",,
Cc1cc(C(=O)N2C[C@@H](Oc3ccccc3)C[C@H]2C(=O)N2CCCC2)n(C)n1,,,inactive

# Source: PubChem BioAssay AID1671188 (National Center for Advancing Translational Sciences (NCATS), 2021)
